In general, Ki refers to a dissociation constant, usually derived from enzyme kinetics or from competition with a known ligand.

The record followed here is patent US9873709B2 (priority 2013, dated 2018).

The first assay deals with isolated recombinant JAK1 kinase domain (Homo sapiens (Human), UniProt P23458). The settings on record: read-out: JAK1 Ki.
As for `O=C(N[C@H]1CN2CCC1CC2)c1ccc(Nc2nc3c(C4=CCN(C(=O)CCC(F)(F)F)CC4)cccn3n2)cc1` [Example 2-469, N-[(3R)-quinuclidin-3-yl]-4-[[8-[1-(4,4,4-trifluorobutanoyl)-3,6-dihydro-2H-pyridin-4-yl]-[1,2,4]triazolo[1,5-a]pyridin-2-yl]amino]benzamide], the inhibitory constant (Ki) stood at 0.68 nM.

The same assay, now with this note: read-out: JAK1 Ki; isolated recombinant JAK1 kinase domain, 25 μM ATP.
Consider `O=C(CCC(F)(F)F)N1CC=C(c2cccn3nc(Nc4ccc(C(=O)N5CCOC6CCNCC65)cc4)nc23)CC1` (stereo not shown) [Example 2-453, 1-[4-[2-[4-(2,3,4a,5,6,7,8,8a-octahydropyrido[4,3-b][1,4]oxazine-4-carbonyl)anilino]-[1,2,4]triazolo[1,5-a]pyridin-8-yl]-3,6-dihydro-2H-pyridin-1-yl]-4,4,4-trifluoro-butan-1one], for which the Ki came to 1.23 nM.

As for `O=C(N[C@H]1[C@@H]2CNC[C@@H]21)c1ccc(Nc2nc3c(C4=CCN(C(=O)CCC(F)(F)F)CC4)cccn3n2)cc1` [Example 2-454, N-[(1R,5S)-3-azabicyclo[3.1.0]hexan-6-yl]-4-[[8-[1-(4,4,4-trifluorobutanoyl)-3,6-dihydro-2H-pyridin-4-yl]-[1,2,4]triazolo[1,5-a]pyridin-2-yl]amino]benzamide], the Ki is 0.57 nM.

Regarding `O=C(NCCN1CCCCC1)c1ccc(Nc2nc3c(C4=CCN(C(=O)CCC(F)(F)F)CC4)cccn3n2)cc1` [Example 2-455, N-[2-(1-piperidyl)ethyl]-4-[[8-[1-(4,4,4-trifluorobutanoyl)-3,6-dihydro-2H-pyridin-4-yl]-[1,2,4]triazolo[1,5-a]pyridin-2-yl]amino]benzamide], the Ki was 1.23 nM.

On to `O=C(CCC(F)(F)F)N1CC=C(c2cccn3nc(Nc4ccc(C(=O)N5CCC(c6ccncc6)CC5)cc4)nc23)CC1` [Example 2-456, 4,4,4-trifluoro-1-[4-[2-[4-[4-(4-pyridyl)piperidine-1-carbonyl]anilino]-[1,2,4]triazolo[1,5-a]pyridin-8-yl]-3,6-dihydro-2H-pyridin-1-yl]butan-1-one], for which the Ki was 0.92 nM.

Turning to `CN1CCN(C(=O)c2ccc(Nc3nc4c(C5=CCN(C(=O)CCC(F)(F)F)CC5)cccn4n3)cc2)C(C(=O)N(C)C)C1` (stereo not shown) [Example 2-457, N,N,4-trimethyl-1-[4-[[8-[1-(4,4,4-trifluorobutanoyl)-3,6-dihydro-2H-pyridin-4-yl]-[1,2,4]triazolo[1,5-a]pyridin-2-yl]amino]benzoyl] piperazine-2-carboxamide], the Ki is 2.59 nM.

For `CN1CCC(NC(=O)c2ccc(Nc3nc4c(C5=CCN(C(=O)CCC(F)(F)F)CC5)cccn4n3)cc2)C1` (stereo not shown) [Example 2-459, N-(1-methylpyrrolidin-3-yl)-4-[[8-[1-(4,4,4-trifluorobutanoyl)-3,6-dihydro-2H-pyridin-4-yl]-[1,2,4]triazolo[1,5-a]pyridin-2-yl]amino]benzamide], the Ki amounted to 0.61 nM.

As for `CN(Cc1ccc2ncccc2c1)C(=O)c1ccc(Nc2nc3c(C4=CCN(C(=O)CCC(F)(F)F)CC4)cccn3n2)cc1` [Example 2-460, N-methyl-N-(6-quinolylmethyl)-4-[[8-[1-(4,4,4-trifluorobutanoyl)-3,6-dihydro-2H-pyridin-4-yl]-[1,2,4]triazolo[1,5-a]pyridin-2-yl]amino]benzamide], the inhibition constant Ki was determined as 0.93 nM.

`CC1CCCN(C2CCN(C(=O)c3ccc(Nc4nc5c(C6=CCN(C(=O)CCC(F)(F)F)CC6)cccn5n4)cc3)CC2)C1` (stereo not shown) [Example 2-461, 4,4,4-trifluoro-1-[4-[2-[4-[4-(3-methyl-1-piperidyl)piperidine-1-carbonyl]anilino]-[1,2,4]triazolo[1,5-a]pyridin-8-yl]-3,6-dihydro-2H-pyridin-1-yl]butan-1-one]: the Ki is 0.84 nM.

On to `O=C(CCC(F)(F)F)N1CC=C(c2cccn3nc(Nc4ccc(C(=O)N5CCN(CCn6ccnc6)CC5)cc4)nc23)CC1` [Example 2-462, 4,4,4-trifluoro-1-[4-[2-[4-[4-(2-imidazol-1-ylethyl)piperazine-1-carbonyl]anilino]-[1,2,4]triazolo[1,5-a]pyridin-8-yl]-3,6-dihydro-2H-pyridin-1-yl]butan-1-one], for which the inhibitory constant (Ki) stood at 0.87 nM.

Regarding `CC(C)N1CCC(CN(C)C(=O)c2ccc(Nc3nc4c(C5=CCN(C(=O)CCC(F)(F)F)CC5)cccn4n3)cc2)C1` (stereo not shown) [Example 2-463, N-[(1-isopropylpyrrolidin-3-yl)methyl]-N-methyl-4-[[8-[1-(4,4,4-trifluorobutanoyl)-3,6-dihydro-2H-pyridin-4-yl]-[1,2,4]triazolo[1,5-a]pyridin-2-yl]amino]benzamide], the Ki came out at 1.16 nM.

For the compound `CN(C)C1CCN(C(=O)c2ccc(Nc3nc4c(C5=CCN(C(=O)CCC(F)(F)F)CC5)cccn4n3)cc2)C1` (stereo not shown) [Example 2-464, 1-[4-[2-[4-[3-(dimethylamino)pyrrolidine-1-carbonyl]anilino]-[1,2,4]triazolo[1,5-a]pyridin-8-yl]-3,6-dihydro-2H-pyridin-1-yl]-4,4,4-trifluoro-butan-1-one], the Ki came out at 1.08 nM.

As for `O=C(NCCN1CCOCC1)c1ccc(Nc2nc3c(C4=CCN(C(=O)CCC(F)(F)F)CC4)cccn3n2)cc1` [Example 2-465, N-(2-morpholinoethyl)-4-[[8-[1-(4,4,4-trifluorobutanoyl)-3,6-dihydro-2H-pyridin-4-yl]-[1,2,4]triazolo[1,5-a]pyridin-2-yl]amino]benzamide], the Ki is 0.52 nM.

For `O=C(NCCN1CCCC1)c1ccc(Nc2nc3c(C4=CCN(C(=O)CCC(F)(F)F)CC4)cccn3n2)cc1` [Example 2-466, N-(2-pyrrolidin-1-ylethyl)-4-[[8-[1-(4,4,4-trifluorobutanoyl)-3,6-dihydro-2H-pyridin-4-yl]-[1,2,4]triazolo[1,5-a]pyridin-2-yl]amino]benzamide], the Ki came to 0.97 nM.

On to `CN1CCC(CNC(=O)c2ccc(Nc3nc4c(C5=CCN(C(=O)CCC(F)(F)F)CC5)cccn4n3)cc2)CC1` [Example 2-467, N-[(1-methyl-4-piperidyl)methyl]-4-[[8-[1-(4,4,4-trifluorobutanoyl)-3,6-dihydro-2H-pyridin-4-yl]-[1,2,4]triazolo[1,5-a]pyridin-2-yl]amino]benzamide], for which the inhibitory constant (Ki) stood at 1.64 nM.

On to `Cc1cccc(C2CCN(C(=O)c3ccc(Nc4nc5c(C6=CCN(C(=O)CCC(F)(F)F)CC6)cccn5n4)cc3)CC2)n1` [Example 2-468, 4,4,4-trifluoro-1-[4-[2-[4-[4-(6-methyl-2-pyridyl)piperidine-1-carbonyl]anilino]-[1,2,4]triazolo[1,5-a]pyridin-8-yl]-3,6-dihydro-2H-pyridin-1-yl]butan-1-one], for which the Ki stood at 0.69 nM.

`CNC(=O)C1CN(C(=O)c2ccc(Nc3nc4c(C5=CCN(C(=O)CCC(F)(F)F)CC5)cccn4n3)cc2)CCN1CCc1ccccc1` (stereo not shown) [Example 2-470, N-methyl-1-(2-phenylethyl)-4-[4-[[8-[1-(4,4,4-trifluorobutanoyl)-3,6-dihydro-2H-pyridin-4-yl]-[1,2,4]triazolo[1,5-a]pyridin-2-yl]amino]benzoyl] piperazine-2-carboxamide]: the Ki amounted to 0.75 nM.

Consider `CN(Cc1ccccc1)C1CCCN(C(=O)c2ccc(Nc3nc4c(C5=CCN(C(=O)CCC(F)(F)F)CC5)cccn4n3)cc2)C1` (stereo not shown) [Example 2-472, 1-[4-[2-[4-[3-[benzyl(methyl)amino]piperidine-1-carbonyl]anilino]-[1,2,4]triazolo[1,5-a]pyridin-8-yl]-3,6-dihydro-2H-pyridin-1-yl]-4,4,4-trifluoro-butan-1-one], for which the Ki is 1.82 nM.

`CN(C(=O)c1ccc(Nc2nc3c(C4=CCN(C(=O)CCC(F)(F)F)CC4)cccn3n2)cc1)C1CCN(Cc2ccccc2)C1` (stereo not shown) [Example 2-473, N-(1-benzylpyrrolidin-3-yl)-N-methyl-4-[[8-[1-(4,4,4-trifluorobutanoyl)-3,6-dihydro-2H-pyridin-4-yl]-[1,2,4]triazolo[1,5-a]pyridin-2-yl]amino]benzamide]: the Ki came out at 2.61 nM.

Consider `O=C(CCC(F)(F)F)N1CC=C(c2cccn3nc(Nc4ccc(C(=O)N5CCN(CCN6CCOCC6)CC5)cc4)nc23)CC1` [Example 2-474, 4,4,4-trifluoro-1-[4-[2-[4-[4-(2-morpholinoethyl)piperazine-1-carbonyl]anilino]-[1,2,4]triazolo[1,5-a]pyridin-8-yl]-3,6-dihydro-2H-pyridin-1-yl]butan-1-one], for which the Ki was 1 nM.

On to `CN1CCN(C(=O)C2CCN(C(=O)c3ccc(Nc4nc5c(C6=CCN(C(=O)CCC(F)(F)F)CC6)cccn5n4)cc3)CC2)CC1` [Example 2-475, 4,4,4-trifluoro-1-[4-[2-[4-[4-(4-methylpiperazine-1-carbonyl)piperidine-1-carbonyl]anilino]-[1,2,4]triazolo[1,5-a]pyridin-8-yl]-3,6-dihydro-2H-pyridin-1-yl]butan-1-one], for which the inhibition constant (Ki) is 0.75 nM.

On to `Cc1cccnc1CN(C)C(=O)c1ccc(Nc2nc3c(C4=CCN(C(=O)CCC(F)(F)F)CC4)cccn3n2)cc1` [Example 2-476, N-methyl-N-[(3-methyl-2-pyridyl)methyl]-4-[[8-[1-(4,4,4-trifluorobutanoyl)-3,6-dihydro-2H-pyridin-4-yl]-[1,2,4]triazolo[1,5-a]pyridin-2-yl]amino]benzamide], for which the Ki amounted to 0.92 nM.

Regarding `CN(Cc1ccc2c(c1)CCCN2C)C(=O)c1ccc(Nc2nc3c(C4=CCN(C(=O)CCC(F)(F)F)CC4)cccn3n2)cc1` [Example 2-477, N-methyl-N-[(1-methyl-3,4-dihydro-2H-quinolin-6-yl)methyl]-4-[[8-[1-(4,4,4-trifluorobutanoyl)-3,6-dihydro-2H-pyridin-4-yl]-[1,2,4]triazolo[1,5-a]pyridin-2-yl]amino]benzamide], the Ki worked out at 1.57 nM.

As for `O=C(NCCc1ccccn1)c1ccc(Nc2nc3c(C4=CCN(C(=O)CCC(F)(F)F)CC4)cccn3n2)cc1` [Example 2-478, N-[2-(2-pyridyl)ethyl]-4-[[8-[1-(4,4,4-trifluorobutanoyl)-3,6-dihydro-2H-pyridin-4-yl]-[1,2,4]triazolo[1,5-a]pyridin-2-yl]amino]benzamide], the Ki was 0.76 nM.

For the compound `CN1CCC(N(C)C(=O)c2ccc(Nc3nc4c(C5=CCN(C(=O)N6CC(C)(C)C6)CCC5)cccn4n3)cc2)CC1` [Example 2-480, 4-[[8-[1-(3,3-dimethylazetidine-1-carbonyl)-2,3,4,7-tetrahydroazepin-5-yl]-[1,2,4]triazolo[1,5-a]pyridin-2-yl]amino]-N-methyl-N-(1-methyl-4-piperidyl)benzamide], the Ki turned out to be 4.46 nM.
